This is one part of the list.
System: T1, C. trachomatis L2/434/Bu expressing GFP (CTL2-GFP)
T1 construct: L2/434/Bu GFP intracellular growth in HeLa cells
Set-up: species or system HeLa; C. trachomatis total inclusion area by high-content imaging, normalised to DMSO
Details: total inclusion area; 28.5 h, 10 µM; inhibitor
Outline: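 Imaging read-out: GFP inclusions and Hoechst nuclei captured by high-content imaging after fixation. Inclusion area/number = chlamydial growth; nuclei count = host cell viability. MIC calculated per earlier method.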

Structure (SMILES) | % of control remaining
CC(C)c1nn(CN(C)Cc2ccccc2)c(=S)[nH]1 [CBK295166] | 104.27
CN1CCC(Oc2nc3ccccc3nc2C(F)(F)F)CC1 [CBK113299] | 84.0808
CNC(=O)c1ccc(OC)c(S(=O)(=O)NC)c1 [CBK270153] | 89.6106
Cc1nccn1CC(=O)N1CCCC(C)(C(=O)NC2CCCC2)C1 (stereo not drawn) [CBK282210] | 102.208
O=C1C2C3C=CC(C3)C2C(=O)N1CCNCCO (stereo not drawn) [CBK264414] | 100.688
Cc1ccc(Cn2c(=N)n(CC(=O)c3cc(C(C)(C)C)c(O)c(C(C)(C)C)c3)c3ccccc32)cc1 [CBK262458B] | 13.2548
CCOc1ccc(N(CC(=O)O)S(=O)(=O)c2ccc(SC)cc2)cc1 [CBK263764] | 105.998
Cn1c(=O)c(C(N)=O)c(O)c2ccccc21 [CBK027440] | 94.4225
CCNC(=O)C1(Cc2ccc(-c3cccs3)cc2)CCN(C(=O)c2ccccc2)CC1 [CBK285794] | 129.878
CN(C)CCCOC(=O)CN1c2ccccc2CCc2ccccc21 [CBK022863C] | 59.3906
c1cncc(-c2cc(NCCc3ccncc3)ncn2)c1 [CBK037716] | 88.4374
c1ccc(CCCNc2ncc(-c3ccc(N4CCOCC4)cc3)n3ccnc23)cc1 [CBK091223] | 97.5678
CC(C)(C)c1cc(CN2CCCCC2)c(C(=O)O)o1 [CBK266556C] | 117.898
O=c1c2c(nc(SCCc3ccccc3)n1CCc1ccccc1)-c1ccccc1CC21CCCCC1 [CBK262661] | 101.124
O=C(Nc1ccc(F)cc1)c1[nH]c2ccccc2c1NS(=O)(=O)c1ccc(Cl)c(Cl)c1Cl [CBK050091] | 53.6864
Cc1cccc(-c2ncc(C(=O)NCCCN3CCCC3=O)cc2-c2ccco2)c1 [CBK037455] | 110.516
O=C(Nc1ccccc1[N+](=O)[O-])C(c1ccccc1)N1CCOCC1 (stereo not drawn) [CBK269390] | 99.3465
CCn1cc(CN2CCC(O)(c3ccc(C)cc3)CC2)cn1 [CBK282735] | 115.121
O=C(c1cc(F)c(F)cc1F)N1CCC2(CCCN(CCS(=O)(=O)c3ccccc3)C2)C1 (stereo not drawn) [CBK132003] | 72.571
CCN(CC)C(=O)CSc1nnc[nH]1 [CBK026212] | 87.8881
CS(=O)(=O)c1ccc(Cn2c(=O)n(S(=O)(=O)c3ccccc3)c3ccccc32)cc1 [CBK106530] | 107.893
O=C(CSc1nnc(-c2ccccn2)[nH]1)NC1CC2CCC1C2 (stereo not drawn) [CBK269994] | 70.4864
COc1cncc(-c2cc(N3CCN(S(=O)(=O)c4ccc(Cl)cc4)CC3)ncn2)c1 [CBK091162] | 71.5687
CCn1cc(Cl)c(C(=O)NC2CCN(c3cc(C)n[nH]3)CC2)n1 [CBK304322] | 110.116
COc1ccc(N2CC(NC(=O)Nc3ccccn3)CC2=O)cc1 (stereo not drawn) [CBK287642] | 93.1157
CC(C)c1nccn1-c1ccc(NC(=O)Cn2ccnc2)cc1 [CBK281381] | 88.2485

Structure (SMILES) | % of control remaining
Cc1sc(NC(=O)CC(C)(C)CC(=O)Nc2sc(C)c(C)c2C(=O)O)c(C(=O)O)c1C [CBK296094] | 92.1874
CC(C)C12CN3CC(C(C)C)(CN(C1)C3c1c[nH]c3ccccc13)C2=O (stereo not drawn) [CBK263740] | 112.882
CCOC(=O)c1ccc(COc2cccc(-c3cnc4ccccc4n3)c2)cc1 [CBK266395] | 89.9662
c1ccc2sc(-c3cc(N4CCN(CCN5CCCC5)CC4)ncn3)cc2c1 [CBK091172] | 79.8308
C[C@]12C(=O)c3ccccc3NC(=O)C1[C@H]2C(=O)N1CCCCC1 (stereo partly drawn) [CBK285281] | 85.7828
COc1cccc(C2C=C(c3cccnc3)Nc3ncnn32)c1OC (stereo not drawn) [CBK288062] | 124.414
CSc1nc(N)n(-c2cc(C(F)(F)F)cc(C)n2)n1 [CBK005941] | 106.777
COc1ccc(-c2cc(=O)oc3cc(OCC(=O)c4cc5ccccc5o4)ccc23)cc1 [CBK265634] | 91.6612
Cc1cc2c(cc1Br)NC(=O)/C2=N\O [CBK288453] | 44.2442
CC(Oc1cccc(Cl)c1)C(=O)NCc1ccc(S(N)(=O)=O)cc1 (stereo not drawn) [CBK265477] | 114.365
Nc1ccc(-c2cncc(N3CCN(c4ccncc4)CC3)n2)cc1 [CBK065681] | 110.315
COc1ccc(C(NC(=O)C2CCN(C(=O)OCc3ccccc3)CC2)c2ccccc2C)cn1 (stereo not drawn) [CBK059726] | 95.2427
CC(C)c1cccc(-n2cc(O)c(C(=O)NCCCn3cccn3)n2)c1 [CBK305360] | 52.7529
CCOC(=O)c1ccccc1OC(=O)c1ccc2c(c1)C1C=CCC1C(C(=O)O)N2 (stereo not drawn) [CBK265155] | 117.586
CN1C(=O)CC2(C1=O)C(=O)N(CCCn1c(=O)n(C)c3ccccc31)c1ccc(F)cc12 (stereo not drawn) [CBK075441] | 76.0508
COc1ccccc1CC(=O)N1CCC(c2onc3c2CCC3)CC1 [CBK284464] | 40.0038
CCCC(=O)N1C2CCC1c1cnc3cc(-c4ccco4)nn3c1C2 (stereo not drawn) [CBK284383] | 110.232
O=C(O)CCc1ccc(-c2ccc(Nc3cccnc3)nc2)cc1 [CBK037768] | 132.945
CC(NC(=O)CCn1cncn1)c1cccs1 (stereo not drawn) [CBK282199] | 117.503
CN(C)CCN(Cc1ccccc1)C(=O)NCc1c(Cl)cccc1Cl [CBK155107] | 85.6362
CC(=O)c1sc(=S)n(N(C)C)c1C [CBK006774] | 67.7894
OC(COc1ccccc1)CN1CCN(Cc2ccccc2)CC1 (stereo not drawn) [CBK074852C] | 86.4205
COc1ccc2[nH]cc(C3CCN(Cc4nc(C)no4)CC3)c2c1 [CBK305982] | 85.1401
COC(=O)NC(O)C(=O)c1ccco1 (stereo not drawn) [CBK027757] | 14.094
Cc1ccc(-c2nnc(-c3cccc(S(=O)(=O)N4CCOCC4)c3)o2)cc1 [CBK263215] | 92.0624

From PMC12040169 (PLOS Biology, 2025)
